# From PubChem BioAssay (NCATS)
# “And” between values parts separate entries of the source, which are not always exact repeats. Equal entries are not always repeated. The inconclusive results got no clear call from the source; some entries with a clear call stand among them for comparison. Where the call is inconclusive, the potency comes from a doubtful curve fit. Where a structure was tested more than once in an assay, its records may differ in their call. The source made the active and inactive calls. Calls follow the shape of the dose curve; as a rule, active = well fitted inhibition curve with a large enough effect; inconclusive = small, poorly fitted or top-dose-only effect; inactive = flat fitted curve, though single readings scatter.
# Biological target: Phospholipid hydroperoxide glutathione peroxidase GPX4 (Homo sapiens) (UniProt P36969)
# Assay: Primary qHTS Assay for Inhibitors of Recombinant Selenoprotein Glutathione Peroxidase 4 (GPX4) (AID 1845192); also: nearly all actives have a fitted effect of over 65% in size
# Conditions: recombinant GPX4, GR-coupled NADPH fluorescence, 15 min; series mostly up to 50 µM; activity change, negative = inhibition: at the top concentration
# Summary of the method: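 NADPH consumption followed by fluorescence at 340/450 nm, t=0 and after 15 min at room temperature. Reaction started with cumene hydroperoxide (0.5 mM final) after 30 min compound–GPX4 preincubation; final 200 nM GPX4, 100 nM GR, 1 mM GSH, 0.5 mM NADPH.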
# % is scaled to controls: 0 for no effect and ±100 for the full control effect; potency is read from the fitted curve at half-maximal effect; tags tell the direction and shape of the fitted curve.
# UniProt P36969, sequence (P36969 whole entry, looked up): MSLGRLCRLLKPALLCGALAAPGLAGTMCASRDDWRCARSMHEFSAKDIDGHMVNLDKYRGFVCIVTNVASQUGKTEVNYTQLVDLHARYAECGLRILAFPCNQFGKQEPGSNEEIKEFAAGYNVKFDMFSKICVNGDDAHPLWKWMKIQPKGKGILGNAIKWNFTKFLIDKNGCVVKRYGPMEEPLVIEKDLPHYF
Compound,Potency,outcome,"activity change, negative = inhibition"
C=CCNC1=C2C[C@@H](C)C[C@H](OC)[C@H](O)[C@@H](C)/C=C(\C)[C@H](OC(N)=O)[C@@H](OC)/C=C\C=C(/C)C(=O)NC(=CC1=O)C2=O,"inconclusive: 22.7 µM [inhibitor, single point]",–,–
CCOC(=O)O[C@]1(C(=O)COC(=O)CC)CC[C@H]2[C@@H]3CCC4=CC(=O)C=C[C@]4(C)[C@H]3[C@@H](O)C[C@@]21C,"inconclusive: 2.24 µM [inhibitor, partial curve]",–,–
C[C@H](CCC(=O)O)[C@H]1CC[C@H]2[C@@H]3[C@H](O)C[C@@H]4C[C@H](O)CC[C@]4(C)[C@H]3CC[C@]12C,"inconclusive: 32.1 µM [inhibitor, single point]",–,–
O=C(O)C[C@H](O)C[C@H](O)/C=C/c1c(C2CC2)nc2ccccc2c1-c1ccc(F)cc1,"inconclusive: 22.7 µM [inhibitor, single point] and active: 22.4 µM",–,–
O=S(=O)(O)c1ccc2c(N=Nc3ccc(S(=O)(=O)O)c4ccccc34)c(O)c(S(=O)(=O)O)cc2c1,"inconclusive: 35.5 µM [inhibitor, single point]",–,–
CCOc1ccc2c(c1)C(C)=CC(C)(C)N2,active: 31.6 µM,–,–
COc1cc2c(cc1O)CCN[C@]21CS[C@@H]2c3c(OC(C)=O)c(C)c4c(c3[C@H](COC1=O)N1[C@@H]2[C@H]2c3c(cc(C)c(OC)c3O)C[C@@H]([C@@H]1O)N2C)OCO4,"inconclusive: 3.6 µM [inhibitor, partial curve]",–,–
CCOc1ccc(NC(=O)CC(C)O)cc1 (stereo not given),"inconclusive: 39.8 µM [inhibitor, partial curve, poor fit]",–,–
C[C@@H]1C(=O)O[C@H]2CC34[C@H]5C[C@@H](C(C)(C)C)C36[C@H](OC(=O)[C@@H]6O)O[C@@]4(C(=O)O5)[C@]21O (stereo not given in full),–,inactive,–
COC(=O)[C@H]1[C@H]2C[C@@H]3c4[nH]c5ccccc5c4CCN3C[C@H]2C[C@@H](OC(=O)c2cc(OC)c(OC)c(OC)c2)[C@@H]1OC,active: 17.8 µM,–,–
CCC(=O)O[C@]1(C(=O)CCl)[C@@H](C)C[C@H]2[C@@H]3C[C@H](F)C4=CC(=O)C=C[C@]4(C)[C@@]3(F)[C@@H](O)C[C@@]21C,"inconclusive: 14.1 µM [inhibitor, partial curve, poor fit]",–,–
COc1cc(/C=C/C(=O)O[C@H]2CC[C@]34C[C@]35CC[C@]3(C)[C@@H]([C@H](C)CCC=C(C)C)CC[C@@]3(C)[C@@H]5CC[C@H]4C2(C)C)ccc1O,"inconclusive: 3.16 µM [inhibitor, partial curve]",–,–
CC(=O)O[C@H]1C(=O)[C@@]2(C)[C@H]([C@H](OC(=O)c3ccccc3)[C@]3(O)C[C@H](OC(=O)[C@H](O)[C@@H](NC(=O)c4ccccc4)c4ccccc4)C(C)=C1C3(C)C)[C@]1(OC(C)=O)CO[C@@H]1C[C@@H]2O,–,–,inactive: -5.6% [at 15.3 µM]
CC(C)C[C@H]1C(=O)N2CCC[C@H]2[C@]2(O)O[C@](NC(=O)[C@@H]3C=C4c5cccc6[nH]c(Br)c(c56)C[C@H]4N(C)C3)(C(C)C)C(=O)N12,inactive,–,–
Cc1cc(/C=C/c2ccc3cc(N(C)C)ccc3[n+]2C)c(C)n1-c1ccccc1,active: 14.1 µM,–,–
CC(=O)O[C@]1(C(C)=O)CC[C@H]2[C@@H]3C[C@H](C)C4=CC(=O)CC[C@]4(C)[C@H]3CC[C@@]21C,"inconclusive: 35.5 µM [inhibitor, single point]",–,–
O=C1c2c(O)cccc2[C@H]([C@@H]2O[C@H](CO)[C@@H](O)[C@H](O)[C@H]2O)c2cc(CO)cc(O)c21,"inconclusive: 11.2 µM [inhibitor, partial curve]",–,–
O=C(OC[C@H]1O[C@@H](OC(=O)c2cc(O)c(O)c(OC(=O)c3cc(O)c(O)c(O)c3)c2)[C@H](OC(=O)c2cc(O)c(O)c(OC(=O)c3cc(O)c(O)c(O)c3)c2)[C@@H](OC(=O)c2cc(O)c(O)c(OC(=O)c3cc(O)c(O)c(O)c3)c2)[C@@H]1OC(=O)c1cc(O)c(O)c(OC(=O)c2cc(O)c(O)c(O)c2)c1)c1cc(O)c(O)c(OC(=O)c2cc(O)c(O)c(O)c2)c1,active: 4.47 µM,–,–
O=C(CCNNC(=O)c1ccncc1)NCc1ccccc1,–,inactive,–
CCCOc1ccc2nc(NC(=O)OC)sc2c1,–,–,inactive: -15.1%
